# The full ranking holds about 81,000 sequences; the median of “one-hybrid fitness for binding NBS DNA” is about -0.1, and the highest 2% start at about 0.36. Some of the results follow.
# B1: Caulobacter ParB omega fusion; a variant is named by its letters at X, in order, B8GW30 (parent)
# chain: MESVVVGEPGMSEGRRGLGRGLSALLGEVDAAPAQAPGEQLGGSREAPIEILQRNPDQPRRTFREEDLEDLSNSIREKGVLQPILVRPSPDTAGEYQIVAGERAWRAAQRAGLKTVPIMVRELDDLAVLEIGIIENVQRADLNVLEEALSYKVLMEKFERTQENIAQTIGKSXSHVANXMRLLXLPDEVQSYLVSGELTAXHARAIAAAADPVALAKQIIEGGLSVRETEALARKAPNLSAGKSKGGRPPRVKDTDTQALESDLSSVLGLDVSIDHRGSTGTLTITYATLEQLDDLCNRLTRGI
# Variants of: B1
# Experiment: one-hybrid fitness for binding NBS DNA (the Noc-binding site; scaled: cognate 1, non-cognate 0); higher = stronger binding
# Details: with NBS DNA site
# In short: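 Caulobacter ParB libraries with four specificity codons randomised were screened by bacterial one-hybrid selection in the E. coli USO strain, using a HIS3 reporter whose site lies 19 bp from the promoter. Selection ran for 48 hours at 37°C on M9 lacking histidine, with 0.1 mM IPTG and 5 mM 3-AT. Plasmids were Illumina-sequenced before and after selection, three replicate libraries were pooled, and variants with under 10 reads were dropped. Fitness is the log change in each variant's read ratio to wild type, rescaled against the cognate and non-cognate sites.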
row,Variant,one-hybrid fitness for binding NBS DNA
1,TVYG,≤ 0.2
2,WIKW,≤ 0.2
3,GYQS,≤ 0.2
4,VLWE,≤ 0.2
5,EKNS,≤ 0.2
6,EVGP,≤ 0.2
7,SKES,≤ 0.2
8,EAGR,≤ 0.2
9,IVCR,≤ 0.2
10,RNDY,≤ 0.2
11,ANLM,≤ 0.2
12,YKEV,≤ 0.2
13,CRFA,≤ 0.2
14,CGYD,≤ 0.2
15,IPVF,≤ 0.2
16,CACG,≤ 0.2
17,LPTY,≤ 0.2
18,QPIR,≤ 0.2
19,EYAI,≤ 0.2
20,QWMV,≤ 0.2
21,PKWN,≤ 0.2
22,RMWY,≤ 0.2
23,TPDF,≤ 0.2
24,HWCH,≤ 0.2
25,SGPF,≤ 0.2

row,Variant,one-hybrid fitness for binding NBS DNA
1,PMHG,≤ 0.2
2,HHQY,≤ 0.2
3,ADLR,≤ 0.2
4,DLTS,≤ 0.2
5,RPPQ,≤ 0.2
6,LLRG,≤ 0.2
7,HAQT,≤ 0.2
8,TSWT,≤ 0.2
9,RSAD,≤ 0.2
10,QHHV,≤ 0.2
11,FAVT,≤ 0.2
12,LPAR,≤ 0.2
13,AAEG,≤ 0.2
14,QMHK,≤ 0.2
15,VPGM,≤ 0.2
16,PIDS,≤ 0.2
17,QSGF,≤ 0.2
18,VGLD,≤ 0.2
19,PAWH,≤ 0.2
20,WRPI,≤ 0.2
21,LMIW,≤ 0.2
22,NCFV,≤ 0.2
23,MVKC,≤ 0.2
24,PIMC,≤ 0.2
25,PKRI,≤ 0.2

row,Variant,one-hybrid fitness for binding NBS DNA
1,PFMF,≤ 0.2
2,HSEN,≤ 0.2
3,PHLW,≤ 0.2
4,INSR,≤ 0.2
5,NKDR,≤ 0.2
6,KNML,≤ 0.2
7,NDNF,≤ 0.2
8,WPQR,≤ 0.2
9,RSFP,≤ 0.2
10,VVTF,≤ 0.2
11,VWFR,≤ 0.2
12,QWHF,≤ 0.2
13,PIHT,≤ 0.2
14,PPVI,≤ 0.2
15,LRCE,≤ 0.2
16,PRFG,≤ 0.2
17,AYRN,≤ 0.2
18,DRHM,≤ 0.2
19,TPCS,≤ 0.2
20,RFET,≤ 0.2
21,HNKV,≤ 0.2
22,YPVT,≤ 0.2
23,KYTW,≤ 0.2
24,LASR,≤ 0.2
25,SQTG,≤ 0.2

row,Variant,one-hybrid fitness for binding NBS DNA
1,RHQC,≤ 0.2
2,WALI,≤ 0.2
3,PRRV,≤ 0.2
4,YKKI,≤ 0.2
5,GMHR,≤ 0.2
6,ASTQ,≤ 0.2
7,CFYR,0.286
8,RMVE,≤ 0.2
9,ATDF,≤ 0.2
10,LAPI,≤ 0.2
11,SRCY,≤ 0.2
12,TVPC,≤ 0.2
13,PWVI,≤ 0.2
14,STRG,≤ 0.2
15,RWYN,≤ 0.2
16,DDSF,≤ 0.2
17,GIDR,≤ 0.2
18,WCYS,≤ 0.2
19,PMAS,≤ 0.2
20,PIAM,≤ 0.2
21,PMAG,≤ 0.2
22,ADQS,≤ 0.2
23,GCMR,≤ 0.2

# From a collection of fitness landscapes (doi:10.1016/j.celrep.2020.107928)
